This note sets out measurements from article PMC2267168, “Competition between Delta and the Abruptex domain of Notch” (BMC Developmental Biology, 2008).

These are yes or no findings as the source states them, for the method shown. Some binding calls cover weakened binding; strength is not graded here. Where a sequence is shown, tags or fusion partners need not be part of it.

For one assay, the target named is T1, N11-20:V5:His (Drosophila, UniProt P07207 447-832).
T1 chain: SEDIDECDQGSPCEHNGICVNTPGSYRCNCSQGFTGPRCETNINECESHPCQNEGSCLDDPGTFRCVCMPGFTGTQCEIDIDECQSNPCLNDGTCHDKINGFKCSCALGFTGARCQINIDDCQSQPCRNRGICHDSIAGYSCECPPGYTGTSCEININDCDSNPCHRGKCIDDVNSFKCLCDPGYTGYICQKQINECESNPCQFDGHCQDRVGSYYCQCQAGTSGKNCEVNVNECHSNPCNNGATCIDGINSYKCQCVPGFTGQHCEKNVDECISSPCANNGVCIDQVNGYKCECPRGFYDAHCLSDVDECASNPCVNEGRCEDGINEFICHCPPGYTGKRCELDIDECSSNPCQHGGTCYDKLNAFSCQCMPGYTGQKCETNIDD
As to the kind of experiment: ELISA; 200 ng His-tagged protein adsorbed to a 96-well plate at 4°C overnight, blocked with 3% BSA; purified Fc fusion added in TBS (10 mM Tris-Cl pH 8.0, 150 mM NaCl, 1 mM CaCl2) for 2 h; detected with HRP anti-human IgG; half-maximal binding ('Kd') fitted with Prizm, said not to be a true Kd; both purified.

Assay [1] addresses T2, EGF repeats 15-20 of Notch (Drosophila) (UniProt P07207).
T2 sequence: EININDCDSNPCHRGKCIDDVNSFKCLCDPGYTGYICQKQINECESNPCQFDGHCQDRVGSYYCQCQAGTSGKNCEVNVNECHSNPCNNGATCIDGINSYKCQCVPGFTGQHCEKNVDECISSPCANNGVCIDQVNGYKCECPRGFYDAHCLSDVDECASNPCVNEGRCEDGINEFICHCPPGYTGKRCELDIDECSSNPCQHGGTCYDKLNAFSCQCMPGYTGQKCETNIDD
As to the kind of experiment: ELISA; data not shown: EGF repeats 15-20 tested for the binding site of N21-30:Fc; both purified.

In a further assay the target is T3, N11-14:V5:His (Drosophila, UniProt P07207 447-605).
T3 chain: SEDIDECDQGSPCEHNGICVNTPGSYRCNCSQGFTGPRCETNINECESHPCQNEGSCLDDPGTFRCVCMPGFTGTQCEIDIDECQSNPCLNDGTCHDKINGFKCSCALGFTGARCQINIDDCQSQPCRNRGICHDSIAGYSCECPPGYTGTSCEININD
Nature of the assay: ELISA; 200 ng His-tagged protein adsorbed to a 96-well plate at 4°C overnight, blocked with 3% BSA; purified Fc fusion added in TBS (10 mM Tris-Cl pH 8.0, 150 mM NaCl, 1 mM CaCl2) for 2 h; detected with HRP anti-human IgG; half-maximal binding ('Kd') fitted with Prizm, said not to be a true Kd; both purified. For orientation: In an ELISA, binding on a coated surface is turned into a signal by an enzyme label.

B1: N11-20:Fc (Fc fusion, UniProt P07207 447-832)
chain: SEDIDECDQGSPCEHNGICVNTPGSYRCNCSQGFTGPRCETNINECESHPCQNEGSCLDDPGTFRCVCMPGFTGTQCEIDIDECQSNPCLNDGTCHDKINGFKCSCALGFTGARCQINIDDCQSQPCRNRGICHDSIAGYSCECPPGYTGTSCEININDCDSNPCHRGKCIDDVNSFKCLCDPGYTGYICQKQINECESNPCQFDGHCQDRVGSYYCQCQAGTSGKNCEVNVNECHSNPCNNGATCIDGINSYKCQCVPGFTGQHCEKNVDECISSPCANNGVCIDQVNGYKCECPRGFYDAHCLSDVDECASNPCVNEGRCEDGINEFICHCPPGYTGKRCELDIDECSSNPCQHGGTCYDKLNAFSCQCMPGYTGQKCETNIDD
In the case of B1, in the assay with N11-20:V5:His, the binding result was “no binding”.

B2: N21-30:Fc (Fc fusion)
chain: ETNIDDCVTNPCGNGGTCIDKVNGYKCVCKVPFTGRDCESKMDPCASNRCKNEAKCTPSSNFLDFSCTCKLGYTGRYCDEDIDECSLSSPCRNGASCLNVPGSYRCLCTKGYEGRDCAINTDDCASFPCQNGGTCLDGIGDYSCLCVDGFDGKHCETDINECLSQPCQNGATCSQYVNSYTCTCPLGFSGINCQTNDEDCTESSCLNGGSCIDGINGYNCSCLAGYSGANCQYKLNKCDSNPCLNGATCHEQNNEYTCHCPSGFTGKQCSEYVDWCGQSPCENGATCSQMKHQFSCKCSAGWTGKLCDVQTISCQDAADRKGLSLRQLCNNGTCKDYGNSHVCYCSQGYAGSYCQKEIDECQSQPCQNGGTCRDLIGAYECQCRQGFQGQNCELNIDD
For B2, the binding result in assay [1] was “binds weakly”.

B3: N21-25:Fc (Fc fusion)
chain: ETNIDDCVTNPCGNGGTCIDKVNGYKCVCKVPFTGRDCESKMDPCASNRCKNEAKCTPSSNFLDFSCTCKLGYTGRYCDEDIDECSLSSPCRNGASCLNVPGSYRCLCTKGYEGRDCAINTDDCASFPCQNGGTCLDGIGDYSCLCVDGFDGKHCETDINECLSQPCQNGATCSQYVNSYTCTCPLGFSGINCQTNDED
In the case of B3, the binding result in the assay with N11-14:V5:His and with N11-20:V5:His was “binds weakly” throughout.

B4: N1-10:Fc (Fc fusion, UniProt P07207 57-452)
chain: LVAASCTSVGCQNGGTCVTQLNGKTYCACDSHYVGDYCEHRNPCNSMRCQNGGTCQVTFRNGRPGISCKCPLGFDESLCEIAVPNACDHVTCLNGGTCQLKTLEEYTCACANGYTGERCETKNLCASSPCRNGATCTALAGSSSFTCSCPPGFTGDTCSYDIEECQSNPCKYGGTCVNTHGSYQCMCPTGYTGKDCDTKYKPCSPSPCQNGGICRSNGLSYECKCPKGFEGKNCEQNYDDCLGHLCQNGGTCIDGISDYTCRCPPNFTGRFCQDDVDECAQRDHPVCQNGATCTNTHGSYSCICVNGWAGLDCSNNTDDCKQAACFYGATCIDGVGSFYCQCTKGKTGLLCHLDDACTSNPCHADAICDTSPINGSYACSCATGYKGVDCSEDIDE
Take B4: in the assay with N11-20:V5:His, the binding entry is reported as “no binding”.
